Laboratory results from the CheMixHub viscosity set.
This continues a long series; more values of the same kind are listed elsewhere.

Conditions: 100 kPa

CCn1cc[n+](C)c1.N#C[S-]
Conditions	viscosity [mPa·s]
293.15 K	27.9
298.15 K	22.68
303.15 K	19.09
308.15 K	16.39
313.15 K	14.18
318.15 K	12.43
